Experiment [1] has as its target KiSS-1 receptor (Homo sapiens) (UniProt Q969F8). The experiment can be described thus: Human kisspeptin (KISS1R) small molecule agonists, calcium flux assay in KISS1R-HEK293 cells (AID 1920064; active means well fitted activation curve with a large enough effect in the repeat runs). An outline of the steps:
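Agonist mode: intracellular calcium rise tracked at 1 s intervals over 3 min (480/540 nm) immediately after compound addition to dye-loaded KISS1R-HEK293 stable cells. Each compound tested at 15 concentrations in triplicate.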
For orientation: A change in cytosolic calcium serves as a functional read-out for many receptors and channels.

The nature of experiment [2]: p53 small molecule agonists, cell-based qHTS assay with human liver microsomes (AID 1963577).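 On activation: p53 response element beta-lactamase reporter cells with liver microsomes plus NADPH.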 The source says:
National Center for Advancing Translational Sciences [NCATS]
Division of Preclinical Innovation [DPI]
U.S. Environmental Protection Agency [EPA]
National Institutes of Environmental Health Sciences [NIEHS]
National Toxicology Program [NTP]
U.S. Food and Drug Administration [FDA]
p53, a tumor suppressor protein, is activated following cellular insult, including DNA damage and other cellular stresses. The activation of p53 regulates cell fate by inducing DNA repair, cell cycle arrest, apoptosis, or cellular senescence. The activation of p53, therefore, is a good indicator of DNA damage and other cellular stresses. […] The activation of the reporter gene under culture conditions can be detected by fluorescence intensity.
Tox21 Assay Protocol Summary:
The p53RE-bla cells were dispensed at 4,000cells/3ul/well in 1536-well black-clear bottom plates. After the assay plates were incubated at 37 C, 5% CO2 incubator for 5 hours, 23 nL of compounds dissolved in DMSO, positive controls or DMSO only was transferred to the assay plate. Following compound addition, 3 uL of human liver microsomes (XenoTech, Kansas City, KS) at final concentration of 0.5 mg/mL and 1uL of Beta-Nicotinamide adenine dinucleotide 2-phosphate (NADPH) at final concentration of 0.5 mg/mL were transferred to the assay plate. The plates were incubated at 37 C for 16 hours. […]
For orientation: qHTS replaces the single test concentration by a dilution series.

Experiment [3] can be described thus: cAMP Responsive Elements (CRE) small molecule agonists, cell-based qHTS assay (AID 1963590). An outline of the steps: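 Agonist mode: compound added to CRE-bla HEK 293T cells (2,000/well, 18 h after plating) for 3 h at 37 C/5% CO2. Reporter activity detected via FRET beta-lactamase substrate, 2 h room-temperature loading.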
A short description of experiment [4]: cAMP Responsive Elements (CRE) small molecule antagonists, cell-based qHTS assay (AID 1963591; active means well fitted inhibition curve with a large enough effect in the signal ratio in the repeat runs, not every such curve was filed as active; the % refers to the signal ratio). An outline of the steps:
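Antagonist mode: compounds are added alongside the adenylyl cyclase activator NKH477 (0.25 uM final) to CRE-bla HEK293T cells for 3 h. LiveBLAzer FRET substrate, 2 h at room temperature, reports bla expression.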

Records with an inconclusive call do not appear. Unless noted, the call rests on the fitted dose curve. Some structures have more than one record in an assay (separate samples or runs), and their calls can disagree. Some entries of the source have several records that differ or are many. The other results are left out here. There may be further records. Values given together are repeated measurements in other runs, samples, wells, individuals or studies. What stands in brackets tells the records apart. The letters are not those of the source and start again with each entry.
Potency means the concentration at half of the fitted maximal effect.

Chain of UniProt Q969F8 (Q969F8 whole entry, looked up): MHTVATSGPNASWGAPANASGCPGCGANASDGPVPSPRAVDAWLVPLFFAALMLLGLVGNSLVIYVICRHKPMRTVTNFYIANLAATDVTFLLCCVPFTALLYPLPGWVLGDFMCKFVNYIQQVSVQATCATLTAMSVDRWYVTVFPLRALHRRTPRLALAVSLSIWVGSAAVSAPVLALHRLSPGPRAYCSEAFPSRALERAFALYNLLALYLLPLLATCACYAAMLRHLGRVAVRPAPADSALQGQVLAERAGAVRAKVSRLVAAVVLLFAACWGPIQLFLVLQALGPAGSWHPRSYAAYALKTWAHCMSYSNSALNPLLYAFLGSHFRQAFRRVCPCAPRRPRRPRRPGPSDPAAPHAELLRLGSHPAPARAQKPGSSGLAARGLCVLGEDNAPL

With `CS(=O)(=O)OCCCCOS(C)(=O)=O`, the Potency result in experiment [1] was “active: 8.74 µM [sample A] and inactive [sample B] and inactive [sample C]”.
On to `CCCCOCCOCCSC#N`, for which, in experiment [2], the Potency entry is “active: 34.2 µM [sample A] and inactive [sample B]”.
The same measure, in the same setting: then `CCCCCCCCCCCCCC(=O)O`, with “inactive [sample A] and active: 40.8 µM [sample B]”.
In the case of `C[C@]12C[C@H](O)[C@H]3[C@@H](CCC4=CC(=O)CC[C@@]43C)[C@@H]1CC[C@@H]2C(=O)CO`, the Potency entry in experiment [3] was “active: 13.7 µM [sample A] and inactive [sample B]”.
As to `CCCCCC/C=C/CCCCCCCC(=O)O`, in experiment [4], the Potency result was “inactive [sample A] and active: 11.4 µM [sample B]”.
Still for that read-out and setting: then `CC1=C(/C=C/C(C)=C/C=C/C(C)=C/C(=O)Nc2ccc(O)cc2)C(C)(C)CCC1`, with “active: 70.3 µM [sample A] and inactive [sample B]”.

The values are drawn from PubChem BioAssay (Tox21).
